Out of some 420,000 compounds screened, about 64,000 (15%) were called active. Inconclusive results, whose numbers are uncertain, are shown with a selection of clear calls. Calls come from the whole dose curve; as a rule, active = well fitted inhibition curve with a large enough effect; inconclusive = small, poorly fitted or top-dose-only effect; inactive = flat fitted curve, though single readings scatter. Potencies of inconclusive entries are left out as doubtful fits.
Assay: qHTS for Inhibitors of human tyrosyl-DNA phosphodiesterase 1 (TDP1): qHTS in cells in absence of CPT; note: nearly all actives have a fitted effect of over 55% in size
Details: DT40 Tdp1-/- hTDP1 cells, no CPT, ATP luminescence, 48 h; activity change, negative = growth inhibition: at 46.2 µM (top of the series) unless noted
Method in brief: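 Compound effects on proliferation are scored in DT40 Tdp1-/-;hTDP1 cells in the absence of CPT. ATP levels (CellTiter-Glo luminescence) are recorded after a ≥48 hr, 37 °C incubation.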
For `COCC(=O)Nc1cc(C(=O)N2CCc3sccc3C2)c2c(c1)nc(-c1ccncc1)n2C`, the “activity change, negative = growth inhibition” value was inactive: -0.841%.
In the case of `Cc1c(C(=O)CN2CCN(c3ccccc3)CC2)c2ccccc2n1C`, the Potency is reported as inconclusive [inhibitor, partial curve].
With `O=C1c2cccc3cccc(c23)N1Cc1ccc(F)cc1` the “activity change, negative = growth inhibition” value was inactive: 8.76%.
In the case of `O=C(c1ccc2c(c1)OCO2)N1CCCC(c2ccccc2)C1` (stereo unspecified), the Potency is reported as inconclusive [inhibitor, single point].
In the case of `O=S1(=O)CC/C(=N/Nc2ccccn2)c2cc(F)ccc21`, the Potency is reported as inconclusive [inhibitor, partial curve].
In the case of `c1ccc2c(N3CCOCC3)nc(-c3ccoc3)nc2c1`, the “activity change, negative = growth inhibition” value is reported as inactive: -16.2%.
In the case of `O=C1NC[C@H](CCCCN2CCN(CCc3ccc(O)cc3)C(=O)C2=O)N(CCc2ccc(O)cc2)C1=O`, the “activity change, negative = growth inhibition” value is reported as inactive: -6.16%.
With `CCOc1ccc(CNC(=O)C2CCCN(S(=O)(=O)N(C)c3ccc(F)cc3)C2)cc1OC` (stereo unspecified) the Potency was active: 13 µM.
With `Cc1ccc(-n2ncc3c(Nc4ccccc4C)ncnc32)cc1` the Potency was active: 16.4 µM.
With `Cc1ccccc1C(c1ncccc1C)N(C)C(=O)C1CCN(CCOc2ccc(Cl)cc2Cl)CC1` (stereo unspecified) the Potency was inconclusive [inhibitor, single point].
For `CCC(CC)COC(=O)C1=C(C)NC(=O)NC1c1ccc(OC)cc1` (stereo unspecified), the Potency was inconclusive [inhibitor, single point].
For `COc1ccc(-c2cn3nc(N4CCCC(C(=O)NCc5ccccc5OC)C4)sc3n2)cc1` (stereo unspecified), the Potency was inconclusive [inhibitor, single point].
For `COc1ccc(N2CCC(CNC(=O)Nc3cccc(OC)c3)C2)cc1` (stereo unspecified), the Potency was inconclusive [inhibitor, single point].
In the case of `Cc1ccc(S(=O)(=O)/N=C(/c2ccc(F)cc2)N(C)C)cc1`, the “activity change, negative = growth inhibition” value is reported as inactive: 4.5%.
In the case of `Cc1nn(-c2ccc3nnc(C)n3n2)c(C)c1CCC(=O)Nc1ccc(OC(F)(F)F)cc1`, the Potency is reported as active: 23.1 µM.
For `CCOc1ccc(CCNC(=O)c2cc3sccc3n2C)cc1OCC`, the Potency was active: 10.3 µM.
For `C=C(C)C(=O)N1CC2(CC(c3cccc(NC(=O)CC)c3)=NO2)C[C@H]1C(N)=O` (stereo partly specified), the “activity change, negative = growth inhibition” value was inactive: -4.94%.
With `COc1ccc(C(=O)/C=C/Nc2ccc(NC(C)=O)cc2)cc1OC` the Potency was inconclusive [inhibitor, partial curve].
In the case of `CCOc1ccc(S(=O)(=O)N2CCOCC2)cc1NC(=O)CSC(=S)N1CCCC1`, the Potency is reported as inconclusive [inhibitor, single point].
In the case of `Cc1ccc(CCNC(=O)c2ccc3nc4ccccc4c(=O)n3c2)cc1`, the Potency is reported as inconclusive [inhibitor, single point].
With `COc1ccc(S(=O)(=O)N2CCOCC2)cc1NC(=O)C1CC(=O)N(c2ccc3c(c2)OCCO3)C1` (stereo unspecified) the “activity change, negative = growth inhibition” value was inactive: -3.66%.
With `CC(=O)c1ccc(NC(=O)c2ccc(-c3nc(COc4ccc(C)cc4)c(C)o3)cc2)cc1` the “activity change, negative = growth inhibition” value was inactive: -8.22%.
For `COc1ccccc1N(CC(=O)NCCSCc1ccccc1)S(=O)(=O)c1ccccc1`, the Potency was active: 23.1 µM.
In the case of `CS(=O)(=O)c1nc(-c2ccc(Br)cc2)cc(-c2ccccc2)c1C#N`, the Potency is reported as active: 2.59 µM.
With `CC[C@]12CCCN3CCc4c(n(c5ccccc45)[C@@](O)(C(=O)OC)C1)[C@@H]32` the Potency was “inactive”.
For `COCCNC(=S)N1CCC(C(=O)c2ccc(C)cc2)CC1`, the Potency was inconclusive [inhibitor, single point].
For `CCCS(=O)(=O)N1CCc2cc(OC)c(OC)cc2C1`, the “activity change, negative = growth inhibition” value was inactive: 13.6%.
With `CCOC(=O)c1cc(C(C)(C)C)oc1CNC(=O)c1c(C)oc2c1CCCC2` the Potency was inconclusive [inhibitor, single point].
In the case of `Cc1ccc(NC(=O)CS(=O)CC(=O)Nc2ccc(N3CCOCC3)cc2)cc1Cl` (stereo unspecified), the Potency is reported as active: 29.1 µM.
With `CCCNC(=O)c1cc(C2CCCCN2C(=O)c2ccc3ccccc3c2)on1` (stereo unspecified) the Potency was inconclusive [inhibitor, partial curve].
For `O=C(CN1CCN(Cc2ccc(Cl)cc2)CC1)N1CCc2ccccc21`, the Potency was inconclusive [inhibitor, single point].
In the case of `CC(=O)Cn1cnc2scc(-c3ccc(C)c(C)c3)c2c1=O`, the Potency is reported as inconclusive [inhibitor, partial curve].
With `CON(C)C(=O)CC1(CN(Cc2ccccc2)C(=O)OC(C)(C)C)CCCCC1` the Potency was active: 18.4 µM.
With `CCOC(=O)c1c(NC(=O)CSc2nnnn2CC)sc(C)c1C` the Potency was inconclusive [inhibitor, single point].
For `CCCCc1ccc(NC(=O)OC)cc1`, the Potency was inconclusive [inhibitor, single point].
In the case of `O=S(=O)(c1ccccc1)n1ccc2ccccc21`, the Potency is reported as inconclusive [inhibitor, full curve, poor fit].

— PubChem BioAssay AID686978 (National Center for Advancing Translational Sciences (NCATS), 2013)
% is set by controls: 0 for no effect and ±100 for the full control effect; potency is the fitted concentration of half-maximal effect; tags give direction and shape of the fitted curve.
